# Some of the results follow.
# B1: chr3:107805913:107806014:+|3pUTR|ENSG00000114439|msi1_unk|FALSE|overlapping (ssRNA)
# RNA: GGGAGUUCUACAGUCCGACGAUCUACAUGGAGAUUUAAGUUUAAGAUGGUUUAUAUAAUAGGUUAUACCUACAUUUAUAUUGUAGAAUAAAUAUUAAAAAGCCUGUUCCAGAGACUCCCAAGCAGCCUGGGCAGGCAGAUGUACAACAGAGGAUUGAGCAUCA
# B2: chr21:25758092:25758193:+|CDS|ENSG00000154727|unk|FALSE|unique (ssRNA)
# RNA: GGGAGUUCUACAGUCCGACGAUCGAAUUCAGCAUGACCGAUAUAGACCUCACCACACUCAACAUUUCGGGGAGAGAAUUAUGUAGUCUCAACCAAGAAGAUUUUUUUCAGCGGGUUCCUCGGGGAGAAAUUCUCUGGAGUCAUCAACAGAGGAUUGAGCAUCA
# B3: chr6:52500910:52501011:-|3pUTR|ENSG00000065308|msi1|total|mutant (ssRNA)
# RNA: GGGAGUUCUACAGUCCGACGAUCUAAUAACUGCAAAUCGCAUGUUCAGCCAGCAGCCUCCUAAGCCCACCUUCCUCCCCCAUCCGAGAACACCCAUCCCCGGUGCUCUCCAGGCUGUGUCAUUGGCAGGGCUUCACAUGCAGGCAACAGAGGAUUGAGCAUCA
# B4: chr2:171983412:171983537:+|3pUTR|ENSG00000128708|unk|total|mutant (ssRNA)
# RNA: GGGAGUUCUACAGUCCGACGAUCUGAUGACUUUAAUUUUAAAAUCUUGUGACAUUUUGCUUAUACUAAAAGUUAUCUAUCUUCCGUUGAAUAUUUUCUUUUGGAGAGAUUGUAUAUUUUAAAAUACUGUUCCGAGUUUAUGAGCAACAGAGGAUUGAGCAUCA
# B5: chr9:132670296:132670397:+|5pUTR|ENSG00000125484|msi1|FALSE|bound_elsewhere (ssRNA)
# RNA: GGGAGUUCUACAGUCCGACGAUCCCUCCCCUUUACCGCCCCGUGCGUUUCCUCAGCACUUUAGGAACUAAAGCCUGUCUGGGUAGCUCCCUAACAGGCUCUGGAGCUCAAUCCCUGGGCAGGGAAAAGGGGGUCCUCGGGGCUCAACAGAGGAUUGAGCAUCA
# B6: chr4:150265445:150265561:-|3pUTR|ENSG00000198589|unk|total|mutant (ssRNA)
# RNA: GGGAGUUCUACAGUCCGACGAUCGGAUCCGCAAAGCAGAAAACUGGCUGCUGGGUUCUGCCGUUUUAAAAAAUCUAUAUUUUCCGUCAUAAUGAGAAGUCUAUUUUCACCAAUUAUGGAAACAUACAGUGGAGCAAGUAAACCCAACAGAGGAUUGAGCAUCA
# B7: chr2:176131361:176131462:+|CDS|ENSG00000175879|unk|total|mutant (ssRNA)
# RNA: GGGAGUUCUACAGUCCGACGAUCGGAAUUUCUUUUUAACCCCUAUCUGACCAGGAAAAGAAGAAUCGAGGUUUCCCACGCCCCCGCCCUCACCGAGAGACAGGUAAAAAUCUGGUUCCAGAACAGGAGAAUGAAAUGGAAAAACAACAGAGGAUUGAGCAUCA
# B8: ENSG00000107863:be:win_5701|CDS|ENSG00000107863|bound_else_gene|NA|bound_elsewhere_windowed (ssRNA)
# RNA: GGGAGUUCUACAGUCCGACGAUCAGCACCUUGGCUUCAACAAACAGGCCCCUUCUUUCCAUACCACCACAGUCACCUGACCAAAUAAACGGAGAAAGCUUCCAGAACGUGAGCAAAAAUGCUAGUUCUGCAGCGAAUGCCCAACAACAGAGGAUUGAGCAUCA
# B9: ENSG00000107863:be:win_1451|CDS|ENSG00000107863|bound_else_gene|NA|bound_elsewhere_windowed (ssRNA)
# RNA: GGGAGUUCUACAGUCCGACGAUCCAUCUGUUAGUUUUAGUAAUCAUAGAACUCGUUCAUGGGAUUAUAUUGAGGGACAGGAUGAAACCUUAGAAAAUGUCAAUUCUGGAACUCCAAUACCUGAUUCCAAUGGAGAGAAAAAACCAACAGAGGAUUGAGCAUCA
# B10: chr3:168010103:168010202:-|3pUTR|ENSG00000173905|msi1_unk|FALSE|overlapping (ssRNA)
# RNA: GGGAGUUCUACAGUCCGACGAUCGCUCAAACAUAAAUCUGCCUACUGAACUCUAGGAUAUUUAAUUACAAAAAUUAAGAACUUAGACUUUUUUAAAACUUUUGUAUUAGAAAUGCGCAUACAUUUAUAUGAAUAUAUUUUGAUCAACAGAGGAUUGAGCAUCA
# B11: chr15:69268886:69268987:+|CDS|ENSG00000138604|unk|FALSE|bound_elsewhere (ssRNA)
# RNA: GGGAGUUCUACAGUCCGACGAUCGGAGUUAAAGCUGUGUUUAUGAAUAAACAUGACUGGUAUGAAGAAUAUCCAACCACACCUAGCUCUUUUGUUUUAAAUGGCUUUAUGUAUUCUUUAAUUGGGCUGUAUGACUUAAAAGAACAACAGAGGAUUGAGCAUCA
# B12: chr5:133076644:133076819:+|CDS|ENSG00000170606|unk|total|mutant (ssRNA)
# RNA: GGGAGUUCUACAGUCCGACGAUCAAAAUUUGAUGAAGUGUCCGUAAAUCACUUCUGUGAAGAAUUUGGGAAGAAAUACAAGCCCGACAUUAAGUCCAAAAUCCGUGCAUUAUUACGACUCUCUCAGGAGUGUGAGAAACUCAACAACAGAGGAUUGAGCAUCA
# B13: chr9:99150529:99150630:+|3pUTR|ENSG00000106799|msi1|total|mutant (ssRNA)
# RNA: GGGAGUUCUACAGUCCGACGAUCCAUUUGUUAUGUAUGCCGGAGUAAACGUUCGGUGGAUCCUCUGUCUUUGUAACUGAGGUCCGAGCCCGUGUGGUUUUGAGGUCUCACUACACUUUGAGGAAGGCAGCUUUUAAUUCAGUGCAACAGAGGAUUGAGCAUCA
# B14: chr5:113019263:113019364:+|3pUTR|ENSG00000172795|msi1|total|mutant (ssRNA)
# RNA: GGGAGUUCUACAGUCCGACGAUCCUCAACUGUGAAUGAAAUUCCGAAAGAUAAUUCUUCAGCAGUUGGUUGAUCCGAUGGGUCCGUGCUUUUGGAAUAUAUAACAGCCGACUUGUAUUCUUUAUGCACUAUACAUAUGAUACGCAACAGAGGAUUGAGCAUCA
# B15: chr5:180576808:180576909:+|3pUTR|ENSG00000113300|unk|total|mutant (ssRNA)
# RNA: GGGAGUUCUACAGUCCGACGAUCUAUUUUCCGUGUCCUAAAUAAUUUUCAAUAAUCUAUAAUCCCUAAAAUGCAAUAAAAACCCGUAUGUUUUCACGGUGUAUAUUUUUUUUCAAAAAUUCUGUAACAAAUAUAUUUAAUGUGCAACAGAGGAUUGAGCAUCA
# B16: chr2:224511460:224511569:-|CDS|ENSG00000036257|unk|total|mutant (ssRNA)
# RNA: GGGAGUUCUACAGUCCGACGAUCGAAAGCCAGAAAUUUUCCGCAGAAAACCGUGCUUCAGUAUAUAUAAAGAAAGCCGAAGCCCGAAUUAAUGAAGAAACCGAACGAGUGAUGCACUGCCUUGACAAAUCAACGGAAGAACCACAACAGAGGAUUGAGCAUCA
# B17: chr2:151248206:151248307:-|3pUTR|ENSG00000184898|msi1|total|mutant (ssRNA)
# RNA: GGGAGUUCUACAGUCCGACGAUCUUUUUUUAAAGCAAAGAUUAAAUUCCCAUGUAAAACCUUCCUCCCUAUACAAAAAAGAACCGCAGCAUUUUUAUCUUCAAUGACAAAGAAUUGAGUCCAAGAAAAUACUGUAUAAACCUUCAACAGAGGAUUGAGCAUCA
# B18: chr14:70725571:70725672:-|3pUTR|ENSG00000006432|unk|FALSE|unique (ssRNA)
# RNA: GGGAGUUCUACAGUCCGACGAUCUAUUGUUAGAAACGCAUUACCAAAUGCAUCUCUUCUGUCGGAUCAGCGUAUUCCUAGAUUAGGAAUUCAAAUUAAUGAAAAUUCACAUAUGAAAGGAAAAUCCAUUGCUAUUUCUGGAGACAACAGAGGAUUGAGCAUCA
# B19: chr1:229660051:229660152:+|3pUTR|ENSG00000135763|msi1|FALSE|bound_elsewhere (ssRNA)
# RNA: GGGAGUUCUACAGUCCGACGAUCCUCAUUCAUAGUCUCAGUUACCCAGAUAACCUCGGUUGUCACCUUGGAGUAUCUUGUUGUAGUCCCUUUACUAUGUGUAUGUAUAUAGAUGUGCAUAUAAAUAUAUAUAGUAGCUAAAUUCAACAGAGGAUUGAGCAUCA
# B20: chr15:52550141:52550321:-|3pUTR|ENSG00000128989|msi1|FALSE|unique (ssRNA)
# RNA: GGGAGUUCUACAGUCCGACGAUCAGAUGUCACUUUAGUAAAAUACCAAUUUAGUUUUACUUGUGGCUUAUCUAGUUAGAACUUAGCAGACUUUACUGGGACAAGUUUACUGCUCUUGUAGGAGCUCCUCUCACAAGUAGUUGUCAACAGAGGAUUGAGCAUCA
# B21: chr6:96891104:96891324:-|CDS|ENSG00000123545|unk|FALSE|unique (ssRNA)
# RNA: GGGAGUUCUACAGUCCGACGAUCUAAUCAUAAGCUUUUCCCAGAAACCUGGACUGCUGAGAAAAUAAUGCAGGAAUACCAGUUAGAACAGAAAGAUGUGAAUUCUCUUCUUAAAUAUUUUGUUACUUUUGAAGUCGAAAUCUUCAACAGAGGAUUGAGCAUCA
# B22: ENSG00000198589:be:win_6601|CDS|ENSG00000198589|bound_else_gene|NA|bound_elsewhere_windowed (ssRNA)
# RNA: GGGAGUUCUACAGUCCGACGAUCACCCAGCGAUGGCAACACAGAGAGAUAUCUAAUUUUGAGUACUUGAUGUUUCUCAACACGAUAGCAGGACGGAGUUAUAAUGACUUAAAUCAGUAUCCAGUGUUUCCUUGGGUCAUCACUCAACAGAGGAUUGAGCAUCA
# Target: MSI1 full-length (mouse, UniProt Q61474 1-362)
# UniProt Q61474, sequence (Q61474 whole entry): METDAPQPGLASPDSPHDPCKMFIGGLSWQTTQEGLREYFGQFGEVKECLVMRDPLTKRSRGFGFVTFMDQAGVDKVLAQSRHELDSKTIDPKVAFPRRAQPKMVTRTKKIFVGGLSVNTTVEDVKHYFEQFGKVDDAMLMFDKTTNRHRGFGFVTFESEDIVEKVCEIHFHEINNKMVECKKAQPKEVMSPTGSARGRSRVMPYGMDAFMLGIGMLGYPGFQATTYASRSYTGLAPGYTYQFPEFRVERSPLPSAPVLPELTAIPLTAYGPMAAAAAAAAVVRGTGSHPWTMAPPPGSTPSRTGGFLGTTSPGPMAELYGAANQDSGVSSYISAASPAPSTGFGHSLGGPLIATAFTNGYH
# Experiment: nsRBNS (natural sequence RNA bind-n-seq); RBNS binding buffer (assumed for nsRBNS): 25 mM Tris pH 7.5, 150 mM KCl, 3 mM MgCl2, 0.01% Triton X-100, 500 ug/ml BSA, 20 U/ml SUPERase-In, 4 C; UNK is unkempt and MSI1 is Musashi-1; names of the RNAs are library labels; protein concentration not given here; high values mean tight binding
row,Binder,binding signal [enrichment R]
1,B1,2.97
2,B2,0.751
3,B3,0.612
4,B4,0.454
5,B5,0.341
6,B6,0.301
7,B7,0.493
8,B8,0.455
9,B9,6.23
10,B10,7.14
11,B11,0.402
12,B12,0.162
13,B13,0.334
14,B14,0.235
15,B15,6.27
16,B16,0.432
17,B17,0.434
18,B18,1.04
19,B19,3.57
20,B20,3.47
21,B21,0.691
22,B22,0.341

# Reference: publication PMC12136788
